The experiment deals with wild-type Schistosoma japonicum glutathione S-transferase (sjGST) (Schistosoma japonicum) [GST: P08515]. Briefly: native gel or EMSA; non-denaturing sample preparation and electrophoresis; precast native gel 4%-15%, Tris/glycine running buffer, Coomassie-stained; monomer and dimer bands separated.

For orientation: stoichiometry N means a count of units in the complex or per binding partner.

“wild-type Schistosoma japonicum glutathione S-transferase (sjGST) (a stretch of the chain, chain not printed) (enzyme; other documents disagree on this pair)” displayed a stoichiometry N of 2.

For the origin of these results see paper PMC11968563.
